Experimental findings from the antibiotic and cytotoxicity screens of Wong et al. (2023) are described below.

Molecules are shown by their SMILES. Some of the results follow.

One assay concerns HSkMC. In words: cytotoxicity call (relative viability < 0.9). The conditions noted are these: 10 µM.
The test system of the next assay is S. aureus RN4220. The experiment in a line: growth inhibition call (relative growth <= 0.2). The conditions noted are these: 50 µM.

For `CC(C)NC(=O)Nc1ccc2c(c1)C(=O)N([C@@H](C)CO)C[C@@H](C)[C@H](CN(C)C(=O)Nc1ccc(F)cc1)OCCCC[C@@H](C)O2`, the cytotoxicity call in the assay on HSkMC is “inactive”. The growth inhibition call in the assay on S. aureus RN4220 was “inactive”.
For `C[C@H](CO)N1C[C@H](C)[C@H](CN(C)S(=O)(=O)c2cn(C)cn2)Oc2ccc(NS(=O)(=O)c3cn(C)cn3)cc2CC1=O`, the cytotoxicity call with HSkMC was “inactive”. The growth inhibition call in the assay with S. aureus RN4220 was “inactive”.
On to `CCCC(=O)N(CCc1c[nH]c2ccccc12)[C@@H]1CC(C(=O)NCCO)=C[C@H](Oc2c(I)cc(CO)cc2OC)[C@H]1O`, for which the cytotoxicity call in the assay on HSkMC is “inactive”. Besides, the growth inhibition call in the assay with S. aureus RN4220 is “inactive”.
On to `C[C@@H]1CCCCO[C@H](CN(C)C(=O)C2CCCCC2)[C@H](C)CN([C@H](C)CO)C(=O)c2cc(NS(=O)(=O)c3ccc(F)cc3)ccc2O1`, for which, in the assay on HSkMC, the cytotoxicity call was “inactive”. Also, the growth inhibition call with S. aureus RN4220 was “inactive”.
As for `COc1ccc2c3c([nH]c2c1)[C@H](CO)N(C[C@]13CN(Cc2ccccc2)C1)S(=O)(=O)c1cn(cn1)C`, in the assay on HSkMC, the cytotoxicity call is “inactive”. Also, the growth inhibition call in the assay with S. aureus RN4220 is “inactive”.
With `COc1ccc(CN(C)C[C@H]2OCCCC[C@@H](C)Oc3ccc(NC(=O)NC(C)C)cc3C(=O)N([C@H](C)CO)C[C@@H]2C)cc1`, in the assay on HSkMC, the cytotoxicity call was “inactive”. Moreover, the growth inhibition call in the assay with S. aureus RN4220 was “inactive”.
Consider `Cc1cc(F)ccc1S(=O)(=O)N1[C@@H]2CC[C@@H](C2)[C@H]1c1nc2cccc(OCc3ccc(F)cc3)c2[nH]1`, for which, in the assay with HSkMC, the cytotoxicity call was “inactive”. Besides, the growth inhibition call with S. aureus RN4220 is “inactive”.
With `C[C@@H]1CN([C@H](C)CO)C(=O)c2cccc(NC(=O)c3cnccn3)c2O[C@H]1CN(C)Cc1ccncc1`, the cytotoxicity call in the assay with HSkMC is “inactive”. Also, the growth inhibition call in the assay with S. aureus RN4220 is “inactive”.
As to `C[C@H](CO)N1C[C@H](C)[C@@H](CN(C)S(=O)(=O)c2ccccc2F)Oc2ncc(C#Cc3ccccc3)cc2C1=O`, the cytotoxicity call with HSkMC is “inactive”. In addition, in the assay with S. aureus RN4220, the growth inhibition call was “inactive”.
As to `O[C@H]1CCN(c2nccs2)C1`, the cytotoxicity call with HSkMC was “inactive”. Further, the growth inhibition call in the assay on S. aureus RN4220 was “inactive”.
For the compound `C[C@@H]1CN([C@H](C)CO)C(=O)Cc2cc(NS(=O)(=O)c3ccccc3)ccc2O[C@@H]1CN(C)S(C)(=O)=O`, the cytotoxicity call in the assay on HSkMC is “inactive”. In the assay on S. aureus RN4220, the growth inhibition call is “inactive”.
For `COc1cccc(CN(C)C[C@@H]2OCc3ccccc3-c3c(n(C)c4ccccc34)C(=O)N([C@@H](C)CO)C[C@H]2C)c1`, the cytotoxicity call in the assay with HSkMC is “inactive”. For the same compound, the growth inhibition call with S. aureus RN4220 was “inactive”.
Consider `CN1C(=O)c2cc(NC(=O)C3CCOCC3)ccc2OC[C@@H]2O[C@@H](CC(=O)NCc3ccc4c(c3)OCO4)CC[C@H]21`, for which, in the assay with HSkMC, the cytotoxicity call was “inactive”. The growth inhibition call with S. aureus RN4220 was “inactive”.
Consider `C[C@@H]1CN([C@@H](C)CO)C(=O)Cc2cc(NC(=O)C3CC3)ccc2O[C@H]1CN(C)C(=O)Nc1ccc2c(c1)OCO2`, for which, in the assay on HSkMC, the cytotoxicity call was “inactive”. Besides, in the assay with S. aureus RN4220, the growth inhibition call is “inactive”.
On to `O=C(O)c1cc(O)c(O)c(O)c1`, for which the cytotoxicity call in the assay with HSkMC is “inactive”. The growth inhibition call in the assay on S. aureus RN4220 is “inactive”.
With `C[C@H](CO)N1C[C@H](C)[C@H](CN(C)S(=O)(=O)c2ccc(F)cc2)OCCCC[C@H](C)Oc2ccc(NS(=O)(=O)c3cn(C)cn3)cc2C1=O`, in the assay with HSkMC, the cytotoxicity call was “inactive”. The growth inhibition call in the assay with S. aureus RN4220 was “inactive”.
In the case of `C[C@@H]1CN([C@@H](C)CO)C(=O)c2cc(NC(=O)Nc3ccc4c(c3)OCO4)ccc2O[C@@H](C)CCCCO[C@H]1CN(C)Cc1ccc2c(c1)OCO2`, the cytotoxicity call in the assay on HSkMC is “inactive”. In addition, the growth inhibition call in the assay with S. aureus RN4220 was “inactive”.
With `COc1ncc(-c2ccc3c(Nc4cc(Oc5cc(F)cc(F)c5)cc(C(=O)O)c4)c(S(=O)(=O)NC4CC4)cnc3c2)c(OC)n1`, in the assay on HSkMC, the cytotoxicity call is “inactive”. Further, the growth inhibition call in the assay on S. aureus RN4220 was “active”.
On to `C[C@@H]1CN([C@@H](C)CO)C(=O)c2cc(NC(=O)Nc3ccccc3)ccc2O[C@@H]1CN(C)C(=O)Nc1cccc2ccccc12`, for which the cytotoxicity call in the assay on HSkMC was “active”. Further, the growth inhibition call with S. aureus RN4220 was “inactive”.
Take `Cc1noc(C)c1S(=O)(=O)Nc1ccc2c(c1)C(=O)N([C@H](C)CO)C[C@@H](C)[C@H](CN(C)Cc1ccc(-c3ccccc3)cc1)O2`: the cytotoxicity call in the assay with HSkMC is “inactive”. Also, the growth inhibition call in the assay on S. aureus RN4220 is “inactive”.
For the compound `CN(C)CCCNC(=O)C[C@H]1CC[C@H]2[C@@H](COc3ccc(NC(=O)c4ccc5c(c4)OCO5)cc3C(=O)N2C)O1`, the cytotoxicity call with HSkMC was “inactive”. Also, in the assay on S. aureus RN4220, the growth inhibition call was “inactive”.
For `C[C@@H]1CCCCO[C@@H](CN(C)S(=O)(=O)c2cccs2)[C@@H](C)CN([C@@H](C)CO)C(=O)c2cc(NC(=O)NC3CCCCC3)ccc2O1`, the cytotoxicity call in the assay on HSkMC is “inactive”. Also, in the assay on S. aureus RN4220, the growth inhibition call was “inactive”.
Turning to `CC12CCC3c4ccc(O)cc4CCC3C1CC(O)C2O` (stereo not given), in the assay on HSkMC, the cytotoxicity call was “inactive”. Moreover, the growth inhibition call in the assay with S. aureus RN4220 is “inactive”.
On to `C[C@H]1CN([C@@H](C)CO)C(=O)Cc2cc(N(C)C)ccc2O[C@@H]1CN(C)S(=O)(=O)c1cn(C)cn1`, for which, in the assay on HSkMC, the cytotoxicity call is “inactive”. Besides, the growth inhibition call with S. aureus RN4220 is “inactive”.
With `C[C@H]1CN([C@@H](C)CO)C(=O)c2cc(C#CCN(C)C)cnc2O[C@H]1CN(C)C(=O)c1cnccn1`, the cytotoxicity call in the assay with HSkMC was “inactive”. For the same compound, in the assay on S. aureus RN4220, the growth inhibition call was “inactive”.
`CC(C)Sc1n[nH]c(=O)[nH]c1=O`: the cytotoxicity call with HSkMC was “inactive”. Moreover, the growth inhibition call with S. aureus RN4220 is “inactive”.
For `C[C@H](CO)N1C[C@H](C)[C@H](CN(C)C(=O)C2CCCCC2)OCCCC[C@H](C)Oc2ccc(NC(=O)Nc3ccc(C(F)(F)F)cc3)cc2C1=O`, the cytotoxicity call in the assay on HSkMC was “inactive”. Moreover, the growth inhibition call in the assay with S. aureus RN4220 was “inactive”.
In the case of `C[C@@H]1CN([C@@H](C)CO)C(=O)Cc2cc(NS(C)(=O)=O)ccc2O[C@H]1CN(C)S(=O)(=O)c1ccccc1`, in the assay on HSkMC (human skeletal muscle cells), the cytotoxicity call is “inactive”. The growth inhibition call with S. aureus RN4220 is “inactive”.
With `C[C@@H]1CN([C@H](C)CO)C(=O)c2cc(C#Cc3ccccc3F)cnc2O[C@H]1CN(C)C(=O)Cc1ccncc1`, in the assay with HSkMC, the cytotoxicity call was “inactive”. Besides, the growth inhibition call with S. aureus RN4220 was “inactive”.
As for `C[C@@H]1CN([C@H](C)CO)C(=O)c2cc(NS(=O)(=O)c3ccc(F)cc3)ccc2O[C@@H](C)CCCCO[C@H]1CN(C)Cc1ccc(Cl)c(Cl)c1`, the cytotoxicity call in the assay with HSkMC was “inactive”. The growth inhibition call with S. aureus RN4220 was “inactive”.
